Results published in the supplement of paper PMC10126150.
Values marked as one replicate rest on one cluster of the flow cell; about a third of the high ones do not repeat.

Tested on: ATP
Test: switch fluorescence ratio, 500 uM ATP over buffer (Cy3 cluster intensity, sum of 5 cycles each) (fold (ratio)); higher = stronger signal-on switching upon ATP binding; sequences stand for … in TCGTCGGCAGCGTCAGATGTGTATAAGAGACAGTTTTTTTTTTTTTTTTTTTTTTTTT…TC
Conditions: aptamer strand: ATP DNA aptamer (quencher-CACCTGGGGGAGTATTGCGGAGGAAGG + anchor), 100 nM annealed; ATP concentration: 500 uM; one replicate
Procedure, shortened: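 For every switch-domain sequence, the fluorescence ratio is the mean of per-cluster values, each being summed target-cycle Cy3 intensity over summed buffer-cycle Cy3 intensity. Clusters outside 100-1000 RFU were excluded. On a modified Illumina MiSeq flow-cell, the Cy3-labelled switching-strand clusters were annealed to 100 nM quencher-labelled ATP aptamer, imaged in selection buffer and then after 15 min with 500 uM ATP at 22 °C. Five such cycles were run, with NaOH stripping and re-annealing between them.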
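Also: ATP exposure 15 min at 22 °C before imaging.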

Sequence	switch fluorescence ratio
AGGCACTTTG	1
GTGCTTGTCT	0.97
GGTGGCAATT	1.09
TGGATGTAGG	1.02
GGTTTGTAAA	1.01
ATAAGTCGG	0.986
TTTACTGTTA	1.02
CGCACATTGA	1.14
ACGTAATCGG	1.02
CGCGGGGCGA	1.02
GTACCTGACG	1.11
ATACTTAGTT	1.05
TCCATTTCTT	1
ACTAAATGGG	0.985
AGTGGTCTGC	1
TTCGATATGG	1.07
TGCCACAATT	0.991
CAAATCGAAA	1
CCTTTGTGTT	1
TGCGCGAAGC	1.01
GTGACGCTAT	2.36
AAAGCGGGTA	0.987
AAATCTCCAA	0.955
CGAAGATGTG	0.994
TAAACTTGCA	1.01

Sequence	switch fluorescence ratio
TAAGAGTCCC	0.97
GATTGAAGAG	0.972
TAACTCGGAG	0.947
CTCTCAAAAG	1.09
ACAGTCCAGT	1.03
GTGGATGGCC	1.04
GGATTTGCAG	1.02
CAATACGATT	1.19
TTCGCCATCT	0.978
CATGCGTCAA	3.75
CAGCCAACGG	0.995
ACCACCAGTT	1.19
CACGCGAGAA	1.13
TCACGGAGGC	0.966
CCTCTTTCAT	1.14
ATGTTGTGAA	0.999
TGAAGGCATC	1.03
CGCAAGGGA	3.49
AGTACTCAAA	1.02
GTAAAGCTCC	1.23
GCTACCCCA	2.13
CATAAGCCGG	1.06
TAAGGCGCTC	0.988
TTGGGATTTG	0.973
CGTGCAAGGT	1.09

Sequence	switch fluorescence ratio
GATGCGACTG	1.04
ATAATTAAAA	0.987
AAAAAGGGAC	1.06
ATACCGTAGG	1.02
ACCGCTGAGT	1.11
TGGGGCAACC	1.04
GCGTCCTAGC	1
CTGAAAGTTG	0.982
TATCCGGGCC	0.968
GTAGGGCTTG	0.991
CACTCGAAAG	1.02
CCGCAGTTGG	4.51
AATATCCCTG	1.03
TGCCTATGAT	0.98
GGGGATCTGG	0.992
CATTTGGTGA	1.02
CATATGTTGT	0.981
CCGCAGTCAG	6.58
AAGGGACGAG	1.07
AGTTATTCG	0.934
TTTTTTGACA	1
GACTATCTTA	0.99
ATGCTTGGTT	1
CTGATGTTAT	0.896
CCTGAACCCT	1.02

Sequence	switch fluorescence ratio
ATAGCGTGCA	1.02
TTGTCTGACA	1.01
CCTGGGTGAC	1.51
CCGATGGGCG	1.1
GTCACAGTAT	1.02
AAATCCCCAT	1.02
CAATATTCGC	1.02
CAGTGTTGAG	0.933
CCGGTCGGTG	1.04
AGTAGGGCCT	0.992
TAACCACAGG	1.17
ATCATTTCTG	0.967
TCTCGTCCGG	1.08
CTGGAGGGTT	1.01
TCAGGCTTGC	1.03
TATGGCAATG	1.03
TTGCCCGGGA	1.03
GAGTCGTGTA	1.06
GATCGTTAAA	1.01
AGCAAATAT	1.52
AGGAGTAAAT	1.02
AGGATCCCGT	0.98
CCTATTCACG	1.05
TCCAAATAAT	1.03
ATCTCTGTTG	1.02

Sequence	switch fluorescence ratio
TTGGGCGCTT	1.95
TTCTTTCAGC	1.02
ATTCTAGGAG	0.992
TGAGAAACGT	1.07
GTTTTCTTTT	1.03
GGAGGTAACT	0.903
AAATGTGCGT	1
ACATAAACCT	2.87
GGCTGCTTCC	1.58
TCATCATTCA	1.02
GTTTCTCGCA	1.28
CGCAGGTTGC	1.3
TCTGTTGTGG	0.984
CATGCCTCGT	0.99
CCGATGCATG	2.77
CGGGTGTGCA	1.07
CATTCGAAAA	0.992
TTCCACCACG	1.05
GCCTTGGACA	1.04
CGAAGTTCGT	1.03
GGCCGGGGTC	1.07
ATTACTAGGG	1.05
ATTAGCGACC	1.13
GAGTGAAAAT	1.01
GTTCGAGACT	1.01

Sequence	switch fluorescence ratio
CGCTAGAGGG	1.09
AAGACCGTTT	0.955
TTCTCTCCGA	1.53
TATTTGGCAC	1.28
ATGGATAGC	0.995
TCGCGACGAA	1.04
ACTCAGGGCC	0.998
TTGGCTCC	1.11
GCAAGAAGTG	0.991
GCCGAGGTTC	1.01
CGTAGAACAC	1.1
AAATGTGCAG	1.02
TGCATGTGAA	0.982
AGGGAGCCGT	0.942
CGGGGAGACT	1.02
CATGTTATTG	1.02
CCAAATTTTT	1.03
TGCGCAAGCG	1.04
AAATGATGCG	1.04
TTTGCCGGGC	0.968
AACTGCGTAA	1.29
CAGTATAACA	0.983
CGAATATACT	1.17
CATCTGGGAA	1.09
TTTCAGCTTT	1.04

Sequence	switch fluorescence ratio
AAAGGAGCAA	1.43
CTTACTGCTA	1.18
CCCTGTACGA	1.37
CGCTAGAAAG	1.01
ATCTCACCAC	1.09
CCCGTCTTGT	1.01
GTAAGCAGGT	0.953
ATGTCTAGGA	1.02
GAGCCAATCG	1.06
TCGAGATAGT	0.973
GACTGCCGAC	1.12
AGAGAAAATA	0.952
GTAATTAACT	0.958
TATGGGCCGC	1.13
TTCGGGGCTA	1.02
CAAATATCTG	0.949
CCTCTACGGA	1.16
GGGCAGGACG	0.944
CCGCATGCGC	4.18
TAAACGCTAT	1.16
CCTTGGGGCC	0.996
GCAAAGCGGT	0.992
ATTCACTGCT	1.06
TTGGTCGTAT	0.981
AGCTTACTAA	0.996

Sequence	switch fluorescence ratio
GGTTGGTCGG	1
CGGGGGTGT	1.05
TGGTACGATC	0.963
CGGTCATGGG	0.992
TACTAGAATT	1
GTGTATCTGG	0.937
CGGGAGTCGT	1.02
CTAGGATAGA	0.993
GACCATGTTC	1.02
GGTCCACGTC	0.938
GTGCCTAGTA	1.01
CATGTGGC	0.962
CCAGATTTCA	1
TCTGTCTGGG	1.03
GATAGCACCA	1.02
GAACGCGACT	1.5
AAGTTCATAG	0.989
CTTAAATGAG	0.982
CTATAGAGGT	0.965
CGGGTATCGC	1.03
CGCACCATGA	1.08
GTTCCGTG	1.02
GCCGCGAGAG	2.95
TCGCGTTGAA	1.03
CGTTAAGGAT	0.976
